Screen size: about 46,000 compounds; about 60 (0.1%) were called active. Another 3% or so got no clear call; they are omitted. Calls follow the shape of the dose curve; as a rule, active = well fitted inhibition curve with a large enough effect; inconclusive = small, poorly fitted or top-dose-only effect; inactive = no such curve, though single readings can be large or run the other way. This is one part of the list.
Test: Primary qHTS assay for Inhibitors of ovarian cancer metastasis using an organotypic tumor microenvironment (TME) model. Also: nearly all actives have a fitted effect of over 65% in size.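 As to activity change, negative = inhibition: plate controls were DMSO wells for no effect and tomatine positive control wells for full effect.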
Conditions: SKOV3ip1-GFP adhesion/invasion on 3D omental model, fluorescence; series mostly up to 45.8 µM; activity change, negative = inhibition: at the top concentration
Method in brief: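 Primary human omental fibroblast/mesothelial 3D culture pre-formed 48 h. SKOV3ip1-GFP cells added with compounds (0.36-46 umol/L), incubated 2 h RT/16 h 37 C, fixed; GFP cells quantified at 488/509 nm.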

Activity change, negative = inhibition, inactive:
Cc1ccc(CCNC(=O)c2cc3c(=O)n(C)c4ccccc4c3n2C)cc1 -6.72%
Cc1cccc(N2CCN(c3nc4ccccc4c4nc(-c5cccnc5)nn34)CC2)c1C 3.18%
Cn1cc(CNCC2CCN(c3ncc(C(=O)NO)cn3)CC2)c2ccccc21 14.7%
Cc1cccc(OCC(=O)Nc2ccccc2C(=O)OCc2cc(=O)n3nc(C4CC4)sc3n2)c1 4.75%
Cc1cccc(-n2cnc3cc(C(=O)NC4CCCCCC4)ccc32)c1 -7.75%
CC(C)CCn1c(=O)c2sccc2n2c(CCCC(=O)NC(C)c3ccccc3)nnc12 (stereo not drawn) -0.463%
CC(=O)c1cccc(NC(=O)CSc2nc3c(=O)n(C)c(=O)n(C)c3n2C)c1 -28.5%
CCOC(=O)c1ccc(NC(=O)c2c(NCc3cc(OC)ccc3OC)sc3c2CCC3)cc1 -0.653%
CCc1cnc2c(c1SCCC(C)C)c(=O)n(C)c(=O)n2C -0.245%
CCc1cccc(N2C(=O)N(Cc3c(F)cccc3Cl)c3ccccc3S2(=O)=O)c1 -1.77%
Cc1ccc2cc3cc(C(=O)N(C)c4ccccc4C)oc3nc2c1 -12.2%
COc1ccc(C)cc1NC(=O)CN1CCN(S(=O)(=O)c2ccc(Br)cc2)CC1 -2.07%
Cc1oc2c(cc(NS(=O)(=O)c3ccc(F)cc3)c3ccccc32)c1C(=O)OCc1ccccc1 -21.1%
CC(=O)N1CCN(c2ccc(OC[C@H]3CO[C@](Cn4ccnc4)(c4ccc(Cl)cc4Cl)O3)cc2)CC1 9.92%
CC(=O)c1cc(-c2ccccc2)n(CC(=O)NCc2ccccc2C)c1C -6.08%
COC(=O)c1cc2sc(C)cc2n1CC(=O)Nc1ccc(C)cc1Cl -5.51%
Clc1ccccc1-c1nnc(-c2ccccc2CNc2ccccc2)o1 3.03%
FC(F)(F)c1ccc(C=Cc2nc(COc3ccc(CCCCn4ccnn4)cc3)co2)cc1 5.12%
COc1ccc(NC(=O)C2CCC(CNS(=O)(=O)c3cccs3)CC2)cc1OC (stereo not drawn) -1.83%
Cc1ccc(C)c(N2CCN(S(=O)(=O)c3csc(C(N)=O)c3)CC2)c1 -9.15%
CCn1nnc2cc(C(=O)Nc3cccc(C)c3C)ccc21 -28.4%
OC(CN1CCC(Cc2ccc(F)cc2)CC1)c1ccc(Cl)cc1 (stereo not drawn) -1.1%
Cc1cccc(CC(=O)Nc2cccc(-c3nc4cccnc4s3)c2)c1 -2.63%
Cc1ccccc1CSCCNC(=O)CN(c1ccccc1)S(=O)(=O)N(C)C -8.44%
COc1ccccc1CNC(=O)c1cc2ccc3ccc(C)[nH]c3c2n1 50.3%
COc1cccc(C(C(=O)NCc2ccccc2)N(C(=O)Cn2nnc3ccccc32)c2cccc(C(C)=O)c2)c1 (stereo not drawn) -2.62%
Cc1cccc(Oc2ccc(NC(=O)CCC(=O)OCC(=O)c3ccc(Br)cc3)cc2)c1C 6.82%
COc1cc(C2c3c(-c4ccccc4O)n[nH]c3C(=O)N2CCO)ccc1OCC(C)C (stereo not drawn) 15%
Cc1cc(C)c(Cn2c3ccccc3c3cnn(CC(=O)NCC(C)c4ccccc4)c(=O)c32)c(C)c1 (stereo not drawn) 1.9%
Cc1ccc(NC(=O)Cn2nnc3sc4c(c3c2=O)CCCC4)c(C)c1 -5.93%
CCCN(CCC)C(=O)CSc1nnc2cc(C)c3ccccc3n12 7.15%
CCCN1CCN(CCCNC(=O)c2ccc(CS(=O)c3ccc(OC)cc3)o2)CC1 (stereo not drawn) -4.99%
CCCCc1ccc(NC(=O)CSc2nnc3[nH]c(=O)cc(C)n23)cc1 4.35%
COc1ccc(-n2c(CCC(=O)O)ccc2-c2ccccc2)c(OC)c1 -0.274%
COc1cc(OC)c(NC(=O)CCNS(=O)(=O)c2ccc3c(c2)oc(=O)n3C)cc1Cl 9.12%
Cc1ccc(OCc2nnc(-c3ccccc3)o2)cc1 1.1%
CC(=O)Nc1cccc(NC(=O)C(=O)NCCc2csc3nc(-c4ccccc4F)nn23)c1 -8.43%
CCOC(=O)c1ccccc1NC(=O)c1nn(C)c2c1COc1ccccc1-2 -5.97%
Cc1cc(Cl)ccc1NC(=O)c1cc2ccccn2n1 -8.88%
Cc1ccc(CNC(=O)CSC2=Nc3ccccc3C3=NC(C)C(=O)N23)cc1 (stereo not drawn) 2.57%
O=C(Nc1nc2n(n1)C(c1ccc(F)cc1)C=C(c1ccccc1)N2)c1cccc([N+](=O)[O-])c1 (stereo not drawn) 3.92%
COc1c(Cl)cc(Cl)cc1CNCCSc1nnnn1C 0.707%
CCC(C)NC(=O)CSc1nc2cc3c(cc2c(=O)n1CCCCCC(=O)NCc1ccc(OC)cc1)OCO3 (stereo not drawn) -14.9%
CCOc1ccccc1NC(=O)CN1CCN(S(=O)(=O)c2ccc(Br)cc2)CC1 -7.54%
CC(=O)c1cccc(NC(=O)c2nc(-c3ccccc3)n(-c3cccc(C)c3)n2)c1 0.523%
CCS(=O)(=O)N1CCc2cc(C(=O)Nc3ccc(OC)cc3OC)ccc21 -18.6%
Cc1cc(C)c(NC(=O)Cn2c(=O)n(Cc3ccccc3)c(=O)c3c(C)c(C(=O)N(C)C)sc32)c(C)c1 -1.87%
COc1cc(OC)c(NC(=O)c2c3c(nc4ccccc24)C(=O)N(C2CCCCC2)C3)cc1Cl -5.27%
COc1cc2c(=O)c(S(=O)(=O)c3ccccc3)cn(CC(=O)Nc3ccccc3C)c2cc1OC 0.132%
COc1cc2c(cc1OC)C(COc1ccccc1OC)N(C(=O)c1ccccc1OC)CC2 (stereo not drawn) -1.08%
CCOCCCNC(=O)C(c1ccc(Cl)cc1)N(Cc1ccc2c(c1)OCO2)C(=O)c1ccccc1O (stereo not drawn) -2.71%
COc1ccc(NC(=O)C(C)n2nc(C)c3c(C)n(-c4ccccc4)nc3c2=O)cc1Cl (stereo not drawn) 3.01%
CC(=O)Nc1ccc(Nc2nc3ccc(C)cc3n3nnnc23)cc1 -9.31%
CCOc1ccc(C(=O)N2CCN(Cc3cc(=O)n4nc(-c5cccc(OC)c5)sc4n3)CC2)cc1 4.59%
Cc1cccc(NC(=O)c2ccc(F)c(S(=O)(=O)N(C)C3CCCCC3)c2)c1 -8.52%
Cc1ccc(C)c(OCCCn2c(-c3ccc(Cl)cc3)nc3ccccc3c2=O)c1 -1.76%
COc1ccc(-c2nc(S(=O)(=O)c3ccccc3)c(N3CCCCC3)o2)cc1 9.71%
Cc1ccc2oc(=O)c3cnn(CC(=O)Nc4ccc(Br)cc4C)c3c2c1 2.92%
Cc1ccccc1CNCCCSc1nnnn1-c1ccccc1 -10.7%
O=C(c1ccco1)N(Cc1cccnc1)c1nc2c(F)cccc2s1 2.63%
Cc1cc(C)c(Cn2c(C)c(CNCc3ccccc3C)c(C(=O)O)c2C)c(C)c1 -3.15%
CCc1ccccc1NC(=O)C(=O)c1cc(C)n(-c2ccccc2F)c1C -21.3%
CCc1cccc(C)c1NC(=O)COCc1cc(-c2ccc3c(c2)OCO3)on1 35.1%
Cc1c2cnn(CC(=O)O)c(=O)c2c(C)n1Cc1cccc(Cl)c1 -7.06%
CCNc1nc2c(c(=O)n(C)c(=O)n2C)n1CC(O)COc1ccccc1 (stereo not drawn) 0.146%
COC(=O)c1cc(NC(=O)c2cnc(SC)nc2-c2ccccc2)cc(C(=O)OC)c1 1.63%
Cc1ccc(NCc2nc3ccccc3n2CCOc2ccccc2C)cc1 -3.87%
Cc1cccc(-c2noc(CNC(=O)c3ccc(C)cc3C)n2)c1 -9.73%
O=C(NCc1cccc(Br)c1)c1ccc(-n2cnc3cccnc32)cc1 29.5%
Cc1ccc(-c2cnc(NCc3ccc(C(C)C)cc3)n2C)cc1 -7.33%
Cc1ccc(CNC(=O)COCc2cc(-c3ccc4c(c3)OCO4)on2)cc1 -5.19%

outcome, inactive:
CCn1cc(C(=O)Nc2ccc(C(C)C)cc2)c2cc(OC)c(OC)cc2c1=O
Cc1cccc(C)c1NC(=O)CN1C(=O)c2ccccc2Sc2ncccc21
COc1ccc(-c2noc(CSc3nnc(-c4ccccc4)n3C)n2)cc1
CCCOC(=O)c1ccc(Nc2c(C(=O)OCC)cnc3c(C)cc(Cl)cc23)cc1
CC(C)OCCCNC(=O)c1nn(C)c2c1CSc1ccccc1-2
CCN1CCc2c(sc(-n3cccc3)c2C(C)NC(=O)Nc2ccccc2C)C1 (stereo not drawn)
Cc1ccc(C)c(CSc2cn(CCNC(=O)c3ccccc3F)c3ccccc23)c1
COc1ccc(Cc2c(C)nn(-c3nc(C)c(C(=O)Nc4ccc(C)cc4C)s3)c2C)cc1
O=C(/C=C/c1ccc(Cl)cc1)Nc1nc(-c2cccs2)ns1
CCN(CC)CCNC(=O)c1cc2c(=O)oc3ccc(C)cc3c2s1
CC(=O)N1CCCc2cc(S(=O)(=O)N(Cc3ccccc3)C(C)C)ccc21
CCn1cc(C(=O)NCc2ccc(F)cc2)c(=O)c2cc(S(=O)(=O)N(C)C)ccc21
CC(C)CCNC(=O)c1cn(C)c2ccc(S(=O)(=O)N3CCOCC3)cc2c1=O
COc1ccccc1N1CCN(S(=O)(=O)c2ccc(-c3cnc(C4CC4)o3)cc2)CC1
CCC1CCCCN1Cc1cn2c(-c3ccc(Br)cc3)nnc2s1 (stereo not drawn)
Cc1cccc(C(=O)Nc2cccc(OCc3cc(=O)n4ccccc4n3)c2)c1
Cc1c(Cl)cccc1-n1nc(C)c2c(C)cc(=O)n(CC(=O)NCc3ccccc3)c21
CCc1cccc(NC(=O)CCS(=O)(=O)c2cc3c4c(c2)CCN4C(=O)CC3)c1
COc1ccc(N2CCN(C(=O)c3cccn4c(=O)c5ccc(Cl)cc5nc34)CC2)cc1
CCN(Cc1nc(-c2ccc(OC)cc2)oc1C)S(=O)(=O)c1ccc(Cl)cc1
Cc1cc2c(cc1S(=O)(=O)CCC(=O)Nc1ccc(OC(F)(F)F)cc1)OCC(=O)N2
O=C(CC1N=C2c3ccccc3N=C(SCc3ccc(Cl)cc3)N2C1=O)NC1CCCCC1 (stereo not drawn)
COc1ccc(NC(=O)Nc2cccc(C)n2)c(OC)c1
Nc1c(C(=O)Nc2ccccc2Cl)nnn1Cc1cccc(Cl)c1
COc1cc(OC)cc(-c2nc3nc(C)c(CCC(=O)Nc4ccc(C)cc4)c(C)n3n2)c1
Cc1ccc(-n2ncc3c(N4CCC(C)CC4)ncnc32)cc1C
CCOc1ccc2cc(-c3nnc(Nc4ccccc4F)s3)c(=O)oc2c1
